# Test results as given in PubChem BioAssay AID1345083 (National Center for Advancing Translational Sciences (NCATS), 2018).
# Values joined by “and” are separate entries in the source; they are usually repeats but may differ in a detail not shown here. Equal entries are not always repeated. Screen size: about 94,000 compounds; about 6,200 (6.6%) were called active. Inconclusive means that the source gave no clear call. Such entries were picked first, then a sample of the others. The call rests on the fitted dose curve; in most records, active means well fitted inhibition curve with a large enough effect; inconclusive means small, poorly fitted or top-dose-only effect; inactive means flat fitted curve, though single readings scatter. Potencies beside an inconclusive call are fits to weak or partial responses and may not hold up.
# Assay: Cytotoxic Profiling in HEK 293 Cell Line of Diverse Libraries Using Quantitative High-Throughput Screening; further: nearly all actives have a fitted effect of over 60% in size
# Details: HEK 293 viability, ATP luminescence (CellTiter-Glo), 48-72 h; series mostly up to 115 µM
# How it was run: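 qHTS cytotoxicity; HEK 293, 250 cells/well; compound pinned; 48 or 72 hr, 37 degree Celsius, 5% CO2, 95% humidity; CellTiter-Glo, 10 min RT; luminescence (ATP).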
# Potency means the concentration at half of the fitted maximal effect; tags describe the fitted curve by direction and shape.
row,SMILES,Potency
1,CNC(=O)N1CCC(C2CCN(C(=O)COc3cccc(C)c3)C2)CC1 (centres undefined),inactive
2,Cc1ccccc1C(=O)N1CCN(Cc2ccccc2-c2cccnc2)CC1,"inconclusive: 50.1 µM [inhibitor, partial curve, poor fit]"
3,COc1ccccc1OCc1cc(C(=O)N(C)CC2Cc3ccccc3O2)n[nH]1 (centres undefined),"inconclusive: 89.1 µM [inhibitor, partial curve, poor fit]"
4,Cc1cnc(CCNC(=O)c2cccs2)n1CC1CC1,inactive
5,CC(C)N1CCC(N2CCN(Cc3cn(C(C)C)c4ccccc34)CC2CCO)CC1 (centres undefined),"inconclusive: 22.4 µM [inhibitor, full curve, poor fit]"
6,COc1ccc(C2=NOC3(CCCN(Cc4ccccn4)C3)C2)cc1 (centres undefined),"inconclusive: 70.8 µM [inhibitor, partial curve]"
7,COc1ccccc1CCC(=O)N1CCCC(Nc2ccc(F)cc2)C1 (centres undefined),"inconclusive: 56.2 µM [inhibitor, partial curve, poor fit]"
8,NC(=O)c1ccc(NC(=O)Cn2nc3c(cc2=O)CCCCC3)cc1,inactive
9,COc1ccccc1CC(=O)N[C@@H]1CN(C2CCOCC2)C[C@H]1CN(C)C,"inconclusive: 79.4 µM [inhibitor, partial curve]"
10,Cc1cc(S(=O)(=O)N2C[C@@H](F)C[C@H]2C(=O)N2CCc3ccccc3C2)ccc1F,"inconclusive: 100 µM [inhibitor, single point]"
11,O=C(c1ccccc1F)N1CCCN(c2cc(-c3ccc(Cl)cc3)[nH]n2)CC1,"inconclusive: 28.2 µM [inhibitor, partial curve, poor fit]"
12,CCOC(=O)C(Cc1cccc(N2CCC(N(c3ccccc3)c3ccccc3)CC2)c1F)OC (centres undefined),"inconclusive: 50.1 µM [inhibitor, partial curve, poor fit]"
13,CC(C)c1ccc(S(=O)(=O)N2CCC(CCc3nc(C4CCOCC4)no3)CC2)cc1,"inconclusive: 20 µM [inhibitor, partial curve, poor fit]"
14,Cn1cc(C#N)cc1C(=O)N1CCCC(C)(Cc2ccc3c(c2)OCO3)C1 (centres undefined),"inconclusive: 39.8 µM [inhibitor, partial curve, poor fit]"
15,O=C(NCc1cccc(F)c1)c1cnc2c(c1)N(C(=O)CCc1ccccc1)CCC2,"inconclusive: 17.8 µM [inhibitor, partial curve, poor fit]"
16,O=C1NCCCCCN(C(=O)C2CCC2)[C@H]2CCCC[C@@H]12,inactive
17,Cc1cc(C)cc(-c2ccc(CN3CCCC(NC(=O)c4ccc(Cl)nc4)C3)cc2)c1 (centres undefined),"inconclusive: 28.2 µM [inhibitor, partial curve, poor fit]"
18,CCNC(=O)N1CCC(Oc2ccc(-c3noc(-c4ccccc4)n3)cc2)C1 (centres undefined),active: 17.8 µM
19,CCOC(=O)C1CCN(C(=O)c2cn3ccnc(-c4ccc(C)cc4)c3n2)CC1,"inconclusive: 79.4 µM [inhibitor, partial curve, poor fit]"
20,CC(C)Oc1ccc(C(=O)N2CC(c3nnc(C(C)C)o3)C3(CCOCC3)C2)cc1 (centres undefined),inactive
21,O=c1n(-c2ccc(C(F)(F)F)cc2)nc2n1CCN(Cc1cccc3ccccc13)C2,"inconclusive: 50.1 µM [inhibitor, partial curve, poor fit] and active: 28.2 µM"
22,CS(=O)(=O)N(C1CC1)C1CCOC2(CCN(C(=O)CCc3ccccc3)CC2)C1 (centres undefined),"inconclusive: 79.4 µM [inhibitor, single point]"

row,SMILES,Potency
1,Cc1ccc(-c2ccc3nnc(CNC(=O)Cc4cccc(F)c4)n3n2)cc1C,"inconclusive: 89.1 µM [inhibitor, single point]"
2,Cn1ncc2c(C(=O)NCc3ccc(Cl)cc3)cc(-c3cccc(F)c3)nc21,active: 39.8 µM
3,COc1cccc(-c2cc(C(=O)NCC(F)F)c3cnn(C)c3n2)c1,"inconclusive: 89.1 µM [inhibitor, single point]"
4,CC(NC(=O)C1CCN(C(=O)c2ncn3c2COC(c2ccc(Cl)cc2)C3)CC1)c1ccccc1 (centres undefined),inactive
5,O=C(c1ccc(C(F)(F)F)cc1)N1CCN(C(=O)c2nc3cccnc3n(CCc3ccccc3)c2=O)CC1,active: 44.7 µM
6,O=C(NCC1CCCCC1)c1ccc2c(c1)N(S(=O)(=O)c1ccccc1)CC2,"inconclusive: 22.4 µM [inhibitor, full curve]"
7,COc1cc(C(=O)NC2CCN(c3cc(-c4ccc(Cl)cc4)[nH]n3)C2)cc(OC)c1OC (centres undefined),"inconclusive: 50.1 µM [inhibitor, partial curve, poor fit]"
8,CCc1noc(-c2cn(C3CCN(C(=O)c4ccc(OC)c(F)c4)C3)nn2)n1 (centres undefined),inactive
9,COCCN1C(=O)CCc2cc(NC(=O)c3ccccc3C)ccc21,inactive
10,CC(C)NC(=O)NC[C@H]1O[C@@H]2C[C@@H](CC(=O)N3CCOCC3)O[C@@H]2[C@@H]1O,inactive
11,Cc1ccccc1Oc1ncccc1CNC(=O)c1cnn2ccccc12,"inconclusive: 31.6 µM [inhibitor, full curve]"
12,COc1ccc(C(=O)N2CCN(Cc3ccccc3-c3ccccc3F)CC2)cc1,"inconclusive: 50.1 µM [inhibitor, partial curve, poor fit]"
13,Cc1ccc(-c2nnc(C3CN(C(=O)c4cc(C)cc(C)c4)CC34CCOCC4)o2)cc1 (centres undefined),"inconclusive: 79.4 µM [inhibitor, partial curve, poor fit]"
14,C=CCN1CCN(Cc2cccc(OCC(O)CN(C)C3CCCCC3)c2)CC1 (centres undefined),"inconclusive: 89.1 µM [inhibitor, single point]"
15,Cc1nnsc1C(=O)N1CCCC(c2ccccc2)(c2ccccc2)C1,"inconclusive: 50.1 µM [inhibitor, partial curve, poor fit]"
16,CCN1C(=O)CCN(Cc2ccc(C)c(C)c2)CC12CCOCC2,"inconclusive: 79.4 µM [inhibitor, partial curve, poor fit]"
17,CN1Cc2ccc(Nc3ccccc3)nc2C(C)(C(=O)NCc2cccs2)C1 (centres undefined),active: 70.8 µM
18,CCOc1cc(CN2CCC(C(Cc3ccccc3F)N(C)C(=O)c3cccs3)CC2)ccc1O (centres undefined),"inconclusive: 31.6 µM [inhibitor, partial curve, poor fit]"
19,COc1ccc(-c2[nH]nc3ncc(-c4ccccc4O)nc23)c(C)c1,active: 28.2 µM
20,CCOC(=O)N1CCN(C2CCCN(Cc3cc(C)ccc3-n3cccn3)C2)CC1 (centres undefined),"inconclusive: 25.1 µM [inhibitor, full curve, poor fit]"
21,COCC(=O)N[C@H]1CC[C@]2(C)CC[C@@H]([C@H](C)C(=O)NCc3cccs3)[C@H](O)[C@H]2[C@@H]1C,inactive
22,O=C(NCC1CC1)c1ccc2nnc(-c3ccc(OC(F)(F)F)cc3)n2c1,"inconclusive: 50.1 µM [inhibitor, partial curve, poor fit]"

row,SMILES,Potency
1,Cc1ccc(Oc2c(CCC(=O)NC(C)C)c(C)nn2-c2ccccc2)cc1,"inconclusive: 50.1 µM [inhibitor, partial curve, poor fit]"
2,CNC(=O)[C@@H]1CN(Cc2ccc(Br)o2)C[C@H]1c1nc(COC)no1,inactive
3,Cc1ccccc1CC(=O)N1CCN(C(=O)c2nnn3c2COC(c2ccccc2)C3)CC1 (centres undefined),inactive
4,Cc1nn2c(c1-c1ccccc1OCc1ccccc1)N(CC1CC1)CCC2,"inconclusive: 17.8 µM [inhibitor, full curve, poor fit]"
5,CCOc1ccc(NC(=O)N2CCCC(Cn3c(C4CC4)nc4cccnc43)C2)cc1 (centres undefined),"inconclusive: 89.1 µM [inhibitor, single point]"
6,CNC(=O)c1cc2cc(-c3c(C)noc3C)nc(-c3ccccc3C)c2o1,"inconclusive: 44.7 µM [inhibitor, full curve]"
7,CN1C[C@@H](NC(=O)Nc2ccc(Cl)cc2)C[C@H]1c1nc(-c2ccc(F)cc2)no1,active: 31.6 µM
8,COc1cc(F)ccc1-c1nc(N2CCOCC2)cc2c1CN(c1ccccc1)C2=O,"inconclusive: 126 µM [inhibitor, single point]"
9,CC(C)OCCCNC(=O)c1cc(-c2ccc(C(F)(F)F)cc2)nc2c1cnn2C,active: 44.7 µM
10,Cc1ccc(CN2C[C@@H](CO)[C@H](c3ccccn3)C2)nc1,"inconclusive: 56.2 µM [inhibitor, partial curve, poor fit]"
11,CN1C[C@@H](NC(=O)Nc2cccc(C(F)(F)F)c2)C[C@H]1c1nc(-c2cnccn2)no1,inactive
12,Cc1cccc(CN2CCCC(O)(CNCc3ncccc3C)C2=O)c1 (centres undefined),"inconclusive: 44.7 µM [inhibitor, partial curve, poor fit]"
13,COc1cc(C(=O)NC2CCCN(c3ncccn3)C2)cc(OC)c1OC (centres undefined),inactive
14,O=C(NC1CCCC1)N1CCC(Cc2nncn2CC2CC2)CC1,inactive
15,O=C1CCN(S(=O)(=O)c2ccccc2)CCCN(C(=O)C2CCCC2)CCN1,inactive
16,COc1cccc(-c2noc(CC3CCN(C(=O)c4ccc(N(C)C)cc4)CC3)n2)c1,"inconclusive: 89.1 µM [inhibitor, single point]"
17,CC1=C[C@@H](CN2CCC(C)CC2)[C@H](C(C)C)C[C@H]1Cc1nnc(-c2cccnc2)o1,"inconclusive: 126 µM [inhibitor, single point]"
18,FC(F)(F)c1ccccc1-c1cc(-c2cccnc2)c2cncn2c1,active: 63.1 µM
19,O=C(CCc1nnn2c1CN(C(=O)c1ccccc1)CC2)NC1CC1,inactive
20,CN1C[C@@H](NC(=O)c2ccc(C(C)(C)C)cc2)C[C@H]1c1nc(-c2ccc3ccccc3c2)no1,active: 22.4 µM
